# Measurements reported in the supplement of paper PMC8728848.
# The other results are listed elsewhere or left out.
# B1: CLEC7A (Homo sapiens), Q9BXN2 (protein)
# chain: MEYHPDLENLDEDGYTQLHFDSQSNTRIAVVSEKGSCAASPPWRLIAVILGILCLVILVIAVVLGTMAIWRSNSGSNTLENGYFLSRNKENHSQPTQSSLEDSVTPTKAVKTTGVLSSPCPPNWIIYEKSCYLFSMSLNSWDGSKRQCWQLGSNLLKIDSSNELGFIVKQVSSQPDNSFWIGLSRPQTEVPWLWEDGSTFSSNLFQIRTTATQENPSPNCVWIHVSVIYDQLCSVPSYSICEKKFSM
# Assays:
# Test in all cases: glycan array binding signal (z-score within array); higher = stronger binding
# Conditions in all cases: glycan notation: IUPAC condensed, linker removed
# [1] = biological target: GlcNAc(b1-3)Gal(b1-4)GlcNAc
# Procedure, shortened: (§1)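 Arrays were curated from the Consortium for Functional Glycomics database, 3228 in total, and kept only where the protein sequence was available. Binding is expressed as a within-array Z-score. This score was averaged across arrays of the same protein sequence at different concentrations or buffers and across linkers, and negative values can be read as non-binding.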
# [2] = biological target: GlcNAc(b1-3)Gal(b1-4)GlcNAc(b1-3)Gal(b1-4)GlcNAc
# Procedure, shortened: as §1
# [3] = biological target: GlcNAc(b1-3)GalNAc
# Procedure, shortened: as §1
# [4] = biological target: GlcNAc(b1-3)[GlcNAc(b1-6)]Gal(b1-4)GlcNAc
# Procedure, shortened: as §1
# [5] = biological target: GlcNAc(b1-3)[GlcNAc(b1-6)]GalNAc
# Procedure, shortened: as §1
# [6] = biological target: GlcNAc(b1-3)[GlcNAc(b1-6)]GlcNAc(b1-4)GlcNAc
# Procedure, shortened: as §1
# [7] = biological target: GlcNAc(b1-4)Gal(b1-4)GlcNAc
# Procedure, shortened: as §1
# [8] = biological target: GlcNAc(b1-4)GlcNAc(b1-4)GlcNAc
# Procedure, shortened: as §1
# [9] = biological target: GlcNAc(b1-4)GlcNAc(b1-4)GlcNAc(b1-4)GlcNAc(b1-4)GlcNAc
# Procedure, shortened: as §1
# [10] = biological target: GlcNAc(b1-4)GlcNAc(b1-4)GlcNAc(b1-4)GlcNAc(b1-4)GlcNAc(b1-4)GlcNAc
# Procedure, shortened: as §1
# [11] = biological target: GlcNAc(b1-4)[GlcNAc(b1-6)]GalNAc
# Procedure, shortened: as §1
# [12] = biological target: GlcNAc(b1-6)Gal(b1-4)GlcNAc
# Procedure, shortened: as §1
# [13] = biological target: GlcNAc(b1-6)GalNAc
# Procedure, shortened: as §1
# [14] = biological target: Kdn(a2-3)Gal(b1-3)GlcNAc
# Procedure, shortened: as §1
# [15] = biological target: Kdn(a2-3)Gal(b1-4)GlcNAc
# Procedure, shortened: as §1
# [16] = biological target: Man(a1-2)Man(a1-2)Man(a1-3)Man
# Procedure, shortened: as §1
# [17] = biological target: Man(a1-2)Man(a1-2)Man(a1-6)[Man(a1-3)]Man
# Procedure, shortened: as §1
# [18] = biological target: Man(a1-2)Man(a1-3)Man
# Procedure, shortened: as §1
# [19] = biological target: Man(a1-2)Man(a1-3)[Man(a1-2)Man(a1-6)]Man
# Procedure, shortened: as §1
# [20] = biological target: Man(a1-2)Man(a1-3)[Man(a1-2)Man(a1-6)]Man(a1-6)[Man(a1-2)Man(a1-2)Man(a1-3)]Man(b1-4)GlcNAc(b1-4)GlcNAc
# Procedure, shortened: as §1
# [21] = biological target: Man(a1-2)Man(a1-3)[Man(a1-6)]Man(a1-6)[Man(a1-2)Man(a1-3)]Man(b1-4)GlcNAc(b1-4)GlcNAc
# Procedure, shortened: as §1
# [22] = biological target: Man(a1-2)Man(a1-6)[Man(a1-3)]Man(a1-6)[Man(a1-2)Man(a1-2)Man(a1-3)]Man(b1-4)GlcNAc(b1-4)GlcNAc
# Procedure, shortened: as §1
# [23] = biological target: Man(a1-3)[Man(a1-6)]Man
# Procedure, shortened: as §1
# [24] = biological target: Man(a1-3)[Man(a1-6)]Man(a1-6)[Man(a1-2)Man(a1-3)]Man(b1-4)GlcNAc(b1-4)GlcNAc
# Procedure, shortened: as §1
# [25] = biological target: Man(a1-3)[Man(a1-6)]Man(a1-6)[Man(a1-3)]Man(b1-4)GlcNAc(b1-4)GlcNAc
# Procedure, shortened: as §1
# [26] = biological target: Man(a1-3)[Man(a1-6)]Man(b1-4)GlcNAc(b1-4)GlcNAc
# Procedure, shortened: as §1
# [27] = biological target: Man(b1-4)GlcNAc
# Procedure, shortened: as §1
# [28] = biological target: Neu5Ac(a2-3)Gal
# Procedure, shortened: as §1
# [29] = biological target: Neu5Ac(a2-3)Gal(b1-3)GalNAc
# Procedure, shortened: as §1
# [30] = biological target: Neu5Ac(a2-3)Gal(b1-3)GalNAc(b1-3)Gal(a1-4)Gal(b1-4)Glc
# Procedure, shortened: as §1
# [31] = biological target: Neu5Ac(a2-3)Gal(b1-3)GalNAc(b1-3)Gal(b1-4)GlcNAc
# Procedure, shortened: as §1
# [32] = biological target: Neu5Ac(a2-3)Gal(b1-3)GalNAc(b1-4)[Neu5Ac(a2-3)]Gal(b1-4)Glc
# Procedure, shortened: as §1
# [33] = biological target: Neu5Ac(a2-3)Gal(b1-3)GalNAc6S
# Procedure, shortened: as §1
# [34] = biological target: Neu5Ac(a2-3)Gal(b1-3)GlcNAc
# Procedure, shortened: as §1
# [35] = biological target: Neu5Ac(a2-3)Gal(b1-3)GlcNAc6S
# Procedure, shortened: as §1
# [36] = biological target: Neu5Ac(a2-3)Gal(b1-3)[Fuc(a1-4)]GlcNAc
# Procedure, shortened: as §1
# [37] = biological target: Neu5Ac(a2-3)Gal(b1-3)[Fuc(a1-4)]GlcNAc(b1-3)Gal(b1-4)[Fuc(a1-3)]GlcNAc
# Procedure, shortened: as §1
# [38] = biological target: Neu5Ac(a2-3)Gal(b1-3)[Neu5Ac(a2-3)Gal(b1-4)]GlcNAc
# Procedure, shortened: as §1
binder,measurement,setting,value
B1,glycan array binding signal (z-score),[1],-0.046
same,glycan array binding signal (z-score),[2],-0.528
same,glycan array binding signal (z-score),[3],3.29
same,glycan array binding signal (z-score),[4],-0.12
same,glycan array binding signal (z-score),[5],-0.939
same,glycan array binding signal (z-score),[6],-0.578
same,glycan array binding signal (z-score),[7],-0.062
same,glycan array binding signal (z-score),[8],-0.356
same,glycan array binding signal (z-score),[9],-0.613
same,glycan array binding signal (z-score),[10],-0.552
same,glycan array binding signal (z-score),[11],-0.414
same,glycan array binding signal (z-score),[12],-0.026
same,glycan array binding signal (z-score),[13],-0.113
same,glycan array binding signal (z-score),[14],0.613
same,glycan array binding signal (z-score),[15],0.64
same,glycan array binding signal (z-score),[16],-0.223
same,glycan array binding signal (z-score),[17],-0.555
same,glycan array binding signal (z-score),[18],-0.75
same,glycan array binding signal (z-score),[19],-0.654
same,glycan array binding signal (z-score),[20],-0.599
same,glycan array binding signal (z-score),[21],-0.061
same,glycan array binding signal (z-score),[22],-0.301
same,glycan array binding signal (z-score),[23],-0.301
same,glycan array binding signal (z-score),[24],0.549
same,glycan array binding signal (z-score),[25],0.04
same,glycan array binding signal (z-score),[26],-0.35
same,glycan array binding signal (z-score),[27],-0.755
same,glycan array binding signal (z-score),[28],0.88
same,glycan array binding signal (z-score),[29],-0.336
same,glycan array binding signal (z-score),[30],-0.398
same,glycan array binding signal (z-score),[31],-0.67
same,glycan array binding signal (z-score),[32],-0.365
same,glycan array binding signal (z-score),[33],-0.367
same,glycan array binding signal (z-score),[34],-0.905
same,glycan array binding signal (z-score),[35],1.15
same,glycan array binding signal (z-score),[36],-0.793
same,glycan array binding signal (z-score),[37],1.34
same,glycan array binding signal (z-score),[38],-0.393
